{
  "source": "patent US4086345A",
  "about": "“Product and method for combatting swine dysentery” (Istituto Chemioterapico Italiano, priority 1977, dated 1978)",
  "key": {"[1]": {"experiment": "Acute toxicity in the rabbit", "assay_type": "in vivo", "details": "esophageal"}, "[2]": {"experiment": "Subacute toxicity in the mouse", "details": "15 days"}, "Treponema hyodysenteriae": {"tested_on": "Treponema hyodysenteriae", "experiment": "In vitro test against Treponema hyodysenteriae (MIC, MBC)", "details": "Brachyspira hyodysenteriae; for MIC: read-out: minimum inhibitory concentration"}, "[3]": {"experiment": "Chronic toxicity in the female mouse", "details": "for Body Weight, Termination / Dead/Treated: 18 weeks; for Body Weight, Termination / Body Weight, Start: m±SE; for Dead/Treated: gastric gavage"}, "[4]": {"experiment": "Subacute toxicity in female rats", "details": "2 g/kg/day"}, "[5]": {"experiment": "Acute toxicity in female mice", "assay_type": "in vivo, mouse"}, "[6]": {"tested_on": "five strains of Vibrio cholerae", "experiment": "Effect on five strains of Vibrio cholerae"}, "[7]": {"experiment": "Teratogenetic study in the mouse", "details": "250 mg/kg/day oral"}, "[8]": {"experiment": "Acute toxicity in the rat", "details": "for Dead/Treated within 7 days: Cumulative data regardless of sex"}, "[9]": {"experiment": "Teratogenetic study in the rat", "details": "250 mg/kg/day oral, m±SE"}, "[10]": {"details": "First Experiment, female, esophageal, 4000 mg/kg, m±SEM"}, "[11]": {"details": "First Experiment, male, endoperitoneal, 500 mg/kg, m±SEM"}, "[12]": {"details": "First Experiment, male, esophageal, 4000 mg/kg, m±SEM"}, "[13]": {"details": "Second Experiment, female, esophageal, 4000 mg/kg, ± SE"}, "[14]": {"details": "Second Experiment, female, intraperitoneal, 500 mg/kg, ± SE"}, "[15]": {"details": "Second Experiment, male, esophageal, 4000 mg/kg, ± SE"}},
  "data": [
    {"smiles": "Nc1nccc(C=Cc2c[n+]([O-])c3ccccc3[n+]2[O-])n1", "note": "[CO-1, 2-[2-(2-amino-4-pyrimidinyl)ethenyl]-quinoxaline 1,4-dioxide]", "values": [
      {"measurement": "Body Weight, Start", "setting": "[1]; 500 mg/kg", "value": "2000 to 2100", "unit": "g"},
      {"measurement": "Body Weight, Start", "setting": "[1]; 1000 mg/kg, m±SE", "value": "2037 ± 104.3", "unit": "g"},
      {"measurement": "Body Weight, Termination", "setting": "[1]; 1000 mg/kg, m±SE", "value": "1922.5 ± 71.5", "unit": "g"},
      {"measurement": "dead out of treated animals, within 4 days (footnote)", "setting": "[1]; 2000 mg/kg", "value": "two dead out of seven treated animals"},
      {"measurement": "Dead/Treated", "setting": "[2]; 500 mg/kg/day, gastric gavage", "value": "0/10"},
      {"measurement": "Fresh Organ-to-Body Weight Ratio, Kidneys", "setting": "[2]; 500 mg/kg/day, gastric gavage", "value": "1.5±0.1"},
      {"measurement": "Fresh Organ-to-Body Weight Ratio, Liver", "setting": "[2]; 500 mg/kg/day, gastric gavage", "value": "5.9±0.3"},
      {"measurement": "% Body Weight Change", "setting": "[2]; 500 mg/kg/day, gastric gavage, m+SE", "value": "-8.1±3.9", "unit": "%"},
      {"measurement": "% Body Weight Change", "setting": "[2]; 1 g/kg/day in H2O, oral", "value": "18.5±0.75", "unit": "%"},
      {"measurement": "% Body Weight Change", "setting": "[2]; 1 g/kg/day in adraganth gum, oral", "value": "16.27±1.31", "unit": "%"},
      {"measurement": "MIC", "setting": "Treponema hyodysenteriae", "value": 0.1, "unit": "µg/mL"},
      {"measurement": "Body Weight, Termination", "setting": "[3]; 250 mg/kg/day", "value": "26.7 ± 0.7", "unit": "g"},
      {"measurement": "Dead/Treated", "setting": "[3]; 250 mg/kg/day", "value": "0/10"},
      {"measurement": "Body Weight, Start", "setting": "[3]; 250 mg/kg/day", "value": "27.3+0.5 g"},
      {"measurement": "Body Weight, Termination", "setting": "[3]; 500 mg/kg/day", "value": "30.0 ± 0.7", "unit": "g"},
      {"measurement": "Dead/Treated", "setting": "[3]; 500 mg/kg/day", "value": "2/10"},
      {"measurement": "Body Weight, Start", "setting": "[3]; 500 mg/kg/day", "value": "30.4 ± 0.9", "unit": "g"},
      {"measurement": "Urine Amount", "setting": "[3]; 500 mg/kg/day, excreted by 6 animals in 6 hours", "value": 7, "unit": "mL"},
      {"measurement": "Average Percent Weight of Fresh Organs, Kidneys", "setting": "[4]; 21 days, m±SE, 5 animals", "value": "1.04±03", "unit": "%"},
      {"measurement": "Average Percent Weight of Fresh Organs, Liver", "setting": "[4]; 21 days, m±SE, 5 animals", "value": "4.54 ± 0.10", "unit": "%"},
      {"measurement": "Average Percent Weight of Fresh Organs, Lung", "setting": "[4]; 21 days, m±SE, 5 animals", "value": "1.07±0.09", "unit": "%"},
      {"measurement": "Body Weight, Termination", "setting": "[4]; gastric gavage, 21 days, m±SE", "value": "210.6 ± 9.6", "unit": "g"},
      {"measurement": "Dead/Treated", "setting": "[4]; gastric gavage, 21 days, death caused by a mistake in esophagus incannulation", "value": "1/6"},
      {"measurement": "Body Weight, Start", "setting": "[4]; gastric gavage, m±SE", "value": "204.1 ± 2.0", "unit": "g"},
      {"measurement": "Dead/Treated Animals after 7 days", "setting": "[5]; 250 mg/kg, endoperitoneal", "value": "0/18"},
      {"measurement": "Dead/Treated Animals after 2 days", "setting": "[5]; 1000 mg/kg, endoperitoneal", "value": "6/6"},
      {"measurement": "Dead/Treated Animals after 7 days", "setting": "[5]; 1000 mg/kg, endoperitoneal", "value": "6/6"},
      {"measurement": "Dead/Treated Animals after 4 days", "setting": "[5]; 1000 mg/kg, esophageal", "value": "0/12"},
      {"measurement": "Dead/Treated Animals after 1 day", "setting": "[5]; 2000 mg/kg, endoperitoneal", "value": "6/6"},
      {"measurement": "Dead/Treated Animals after 7 days", "setting": "[5]; 2000 mg/kg, endoperitoneal", "value": "6/6"},
      {"measurement": "Dead/Treated Animals after 4 days", "setting": "[5]; 2000 mg/kg, esophageal", "value": "0/12"},
      {"measurement": "Dead/Treated Animals after 2 days", "setting": "[5]; 4000 mg/kg, esophageal", "value": "1/12"},
      {"measurement": "Growth of the five Vibrio cholerae strains", "setting": "[6]; 10 μg/ml, after 48 hours", "value": "no growth of 3 of the organisms"},
      {"measurement": "Growth of the five Vibrio cholerae strains", "setting": "[6]; 100 μg/ml", "value": "only marginal growth of the remaining two"},
      {"measurement": "Pregnant/Treated Animals", "setting": "[7]; 3rd to 13th days", "value": "3/10"},
      {"measurement": "Body Weight of Fetuses", "setting": "[7]; m±SE", "value": "1.42 ± 0.05", "unit": "g"},
      {"measurement": "No. of Living Fetuses per Delivery", "setting": "[7]; m±SE", "value": "10.3±0.6"},
      {"measurement": "Dead/Treated within 7 days", "setting": "[8]; esophageal, 4000 mg/kg", "value": "0/16"},
      {"measurement": "Dead/Treated within 7 days", "setting": "[8]; intraperitoneal, 500 mg/kg", "value": "4/16"},
      {"measurement": "Body Weight, Start", "setting": "[8]; First Experiment, female, endoperitoneal, 500 mg/kg, m±SEM", "value": "206.2 ± 8.7", "unit": "g"},
      {"measurement": "Body Weight, Start", "setting": "[8]; [10]", "value": "201.2 ± 4.2", "unit": "g"},
      {"measurement": "Body Weight, Termination", "setting": "[8]; [10]", "value": "238.2 ± 12.1", "unit": "g"},
      {"measurement": "Body Weight, Start", "setting": "[8]; [11]", "value": "234.0 ± 6.2", "unit": "g"},
      {"measurement": "Body Weight, Termination", "setting": "[8]; [11]", "value": "314.3 ± 10.3", "unit": "g"},
      {"measurement": "Body Weight, Start", "setting": "[8]; [12]", "value": "234.5 ± 13.8", "unit": "g"},
      {"measurement": "Body Weight, Termination", "setting": "[8]; [12]", "value": "288.7 ± 13.8", "unit": "g"},
      {"measurement": "Body Weight, Start", "setting": "[8]; [13]", "value": "252.0 ± 16.6", "unit": "g"},
      {"measurement": "Body Weight, Termination", "setting": "[8]; [13]", "value": "253.5 ± 12.1", "unit": "g"},
      {"measurement": "Body Weight, Start", "setting": "[8]; [14]", "value": "232.5 ± 5.9", "unit": "g"},
      {"measurement": "Body Weight, Termination", "setting": "[8]; [14]", "value": "218.2 ± 7.0", "unit": "g"},
      {"measurement": "Body Weight, Start", "setting": "[8]; [15]", "value": "222.5 ± 6.2", "unit": "g"},
      {"measurement": "Body Weight, Termination", "setting": "[8]; [15]", "value": "231.7 ± 15.7", "unit": "g"},
      {"measurement": "Body Weight, Start", "setting": "[8]; Second Experiment, male, intraperitoneal, 500 mg/kg, ± SE", "value": "226.2 ± 6.8", "unit": "g"},
      {"measurement": "Body Weight of Fetuses", "setting": "[9]", "value": "7.08 ± 0.19", "unit": "g"},
      {"measurement": "No. of Living Fetuses per Delivery", "setting": "[9]", "value": "10.8±0.86"}
    ]},
    {"smiles": "Cc1cc(C=Cc2c[n+]([O-])c3ccccc3[n+]2[O-])nc(N)n1", "note": "[CO-2, 2-[2-(2-amino-6-methyl-4-pyrimidinyl)ethenyl]-quinoxaline 1,4-dioxide]", "values": [
      {"measurement": "MBC", "setting": "Treponema hyodysenteriae; read-out: minimum bacteriocidal concentration", "value": "< 1", "unit": "µg/mL"},
      {"measurement": "MIC", "setting": "Treponema hyodysenteriae", "value": "~0.1", "unit": "µg/mL"},
      {"measurement": "Growth of the five Vibrio cholerae strains", "setting": "[6]; 100 μg/ml", "value": "only marginal growth of the remaining two"}
    ]}
  ]
}
